Measured values as given in the supplement of paper PMC4967469.

Experiments:
Assay in all cases: Viability of human cancer cell lines after 72 h of drug (GDSC screen)
NVP-TAE684 = compound: COc1cc(N2CCC(N3CCN(C)CC3)CC2)ccc1Nc1ncc(Cl)c(Nc2ccccc2S(=O)(=O)C(C)C)n1 [NVP-TAE684]; settings: top dose 2 µM
Experimental: (§1)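 Human cancer cell lines in 384-well plates, medium with 10% serum, drug for 72 h over a 256-fold dose range (nine 2-fold or five 4-fold steps up to the top dose). Adherent lines were fixed and stained with the nucleic acid dye Syto60, suspension lines read with resazurin; signal relative to control wells, capped at 0 and 100%. One two-parameter sigmoid per drug and line, fitted in a mixed model over all curves with the slope shared within a line.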

SB-715992 = compound: Cc1ccc(C(=O)N(CCCN)[C@@H](c2nc3cc(Cl)ccc3c(=O)n2Cc2ccccc2)C(C)C)cc1 [SB-715992]; settings: top dose 0.128 µM; top dose inferred
Experimental: as §1

AMG-706 = compound: CC1(C)CNc2cc(NC(=O)c3cccnc3NCc3ccncc3)ccc21 [AMG-706]; settings: top dose 2 µM; top dose inferred
Experimental: as §1

JNK Inhibitor VIII = compound: CCOc1nc(NC(=O)Cc2cc(OC)ccc2OC)cc(N)c1C#N [JNK Inhibitor VIII]; settings: top dose 10 µM; top dose inferred
Experimental: as §1

Cyclopamine = compound: CC1=C2C[C@H]3[C@@H](CC=C4C[C@@H](O)CC[C@@]43C)[C@@H]2CC[C@]12O[C@@H]1C[C@H](C)CN[C@H]1[C@H]2C [Cyclopamine]; settings: top dose 16 µM; top dose inferred
Experimental: as §1

FTI-277 = compound: COC(=O)[C@H](CCSC)NC(=O)c1ccc(NC[C@@H](N)CS)cc1-c1ccccc1 [FTI-277]; settings: top dose 1.024 µM; top dose inferred
Experimental: as §1

OSI-906 = compound: C[C@]1(O)C[C@@H](c2nc(-c3ccc4ccc(-c5ccccc5)nc4c3)c3c(N)nccn32)C1 [OSI-906]; settings: top dose 2.56 µM; top dose inferred
Experimental: as §1

YM155 = compound: COCC[n+]1c2c(n(Cc3cnccn3)c1C)C(=O)c1ccccc1C2=O [YM155]; settings: top dose 5.12 µM
Experimental: as §1

NSC-207895 = compound: CN1CCN(c2ccc([N+](=O)[O-])c3no[n+]([O-])c23)CC1 [NSC-207895]; settings: top dose 20 µM; top dose inferred
Experimental: as §1

CGP-60474 = compound: OCCCNc1cc(-c2ccnc(Nc3cccc(Cl)c3)n2)ccn1 [CGP-60474]; settings: top dose 0.256 µM; top dose inferred
Experimental: as §1

Belinostat = compound: O=C(/C=C/c1cccc(S(=O)(=O)Nc2ccccc2)c1)NO [Belinostat]; settings: top dose 20 µM; top dose inferred
Experimental: as §1

JNJ-26854165 = compound: c1ccc2c(CCNc3ccc(Nc4ccncc4)cc3)c[nH]c2c1 [JNJ-26854165]; settings: top dose 10 µM
Experimental: as §1

JQ1 = compound: Cc1sc2c(c1C)C(c1ccc(Cl)cc1)=N[C@@H](CC(=O)OC(C)(C)C)c1nnc(C)n1-2 [JQ1]
Experimental: as §1

Docetaxel = compound: CC(=O)O[C@@]12CO[C@@H]1C[C@H](O)[C@@]1(C)C(=O)[C@H](O)C3=C(C)[C@@H](OC(=O)[C@H](O)[C@@H](NC(=O)OC(C)(C)C)c4ccccc4)C[C@@](O)([C@@H](OC(=O)c4ccccc4)[C@H]21)C3(C)C [Docetaxel]; settings: top dose 0.0125 µM
Experimental: as §1

[1] = top dose 1 µM, screen: GDSC drug entry 1218, top dose inferred
[2] = top dose 2.56 µM, screen: GDSC drug entry 163

| Cell Line | AUC (NVP-TAE684) | IC50 (NVP-TAE684) | AUC (SB-715992) | IC50 (SB-715992) | AUC (AMG-706) | IC50 (AMG-706) | AUC (JNK Inhibitor VIII) | IC50 (JNK Inhibitor VIII) | AUC (Cyclopamine) | IC50 (Cyclopamine) | AUC (FTI-277) | IC50 (FTI-277) | AUC (OSI-906) | IC50 (OSI-906) | AUC (YM155) | IC50 (YM155) | AUC (NSC-207895) | IC50 (NSC-207895) | AUC (CGP-60474) | IC50 (CGP-60474) | AUC (Belinostat) | IC50 (Belinostat) | AUC (JNJ-26854165) | IC50 (JNJ-26854165) | AUC (JQ1; [1]) | IC50 (JQ1; [1]) | AUC (JQ1; [2]) | IC50 (JQ1; [2]) | AUC (Docetaxel) | IC50 (Docetaxel) |
| --- | --- | --- | --- | --- | --- | --- | --- | --- | --- | --- | --- | --- | --- | --- | --- | --- | --- | --- | --- | --- | --- | --- | --- | --- | --- | --- | --- | --- | --- | --- |
| LOXIMVI (melanoma, semi-adherent) | 0.904 | > 2000 nM | 0.936 | > 128 nM | 0.989 | > 2000 nM | 0.982 | > 10000 nM | 0.922 | > 16000 nM | 0.989 | > 1020 nM | 0.886 | 2290 nM | 0.026 | < 20 nM | 0.99 | > 20000 nM | 0.829 | 137 nM | 0.487 | 1150 nM | 0.921 | > 10000 nM | 0.917 | > 1000 nM | 0.814 | 1210 nM |  |  |
| NB-4 (acute myeloid leukaemia, suspension) | 0.665 | 326 nM | 0.56 | 11.3 nM | 0.991 | > 2000 nM | 0.985 | > 10000 nM | 0.903 | 14200 nM | 0.991 | > 1020 nM | 0.519 | 179 nM | 0.014 | < 20 nM | 0.829 | 9450 nM | 0.741 | 66.6 nM | 0.163 | 155 nM | 0.882 | 7280 nM |  |  |  |  |  |  |
| NCI-H524 (small cell lung carcinoma, suspension) | 0.783 | 747 nM | 0.63 | 17.5 nM | 0.987 | > 2000 nM | 0.99 | > 10000 nM | 0.99 | > 16000 nM | 0.989 | > 1020 nM | 0.978 | > 2560 nM |  |  | 0.985 | > 20000 nM | 0.809 | 117 nM | 0.913 | > 20000 nM | 0.923 | > 10000 nM | 0.983 | > 1000 nM | 0.958 | > 2560 nM |  |  |
| NCI-H748 (small cell lung carcinoma, suspension) | 0.97 | > 2000 nM | 0.838 | 124 nM |  |  |  |  | 0.979 | > 16000 nM | 0.959 | > 1020 nM | 0.973 | > 2560 nM | 0.063 | < 20 nM | 0.741 | 7560 nM | 0.756 | 110 nM | 0.261 | 209 nM |  |  |  |  | 0.724 | 842 nM |  |  |
| NCI-H1355 (lung adenocarcinoma, adherent) | 0.675 | 480 nM | 0.929 | > 128 nM | 0.929 | > 2000 nM | 0.891 | > 10000 nM | 0.938 | > 16000 nM | 0.9 | > 1020 nM | 0.556 | 243 nM | 0.631 | 864 nM | 0.975 | > 20000 nM | 0.58 | 29.2 nM | 0.923 | > 20000 nM | 0.939 | > 10000 nM | 0.96 | > 1000 nM | 0.801 | 1960 nM |  |  |
| NK-92MI (lymphoid neoplasm, suspension) | 0.847 | 1320 nM | 0.816 | 64.6 nM |  |  |  |  | 0.967 | > 16000 nM | 0.984 | > 1020 nM | 0.984 | > 2560 nM |  |  |  |  | 0.662 | 43.4 nM |  |  |  |  |  |  | 0.969 | > 2560 nM |  |  |
| SCC-3 (B-cell lymphoma, suspension) | 0.012 | < 7.81 nM | 0.676 | 21.3 nM |  |  |  |  | 0.993 | > 16000 nM | 0.997 | > 1020 nM | 0.997 | > 2560 nM | 0.01 | < 20 nM | 0.997 | > 20000 nM | 0.652 | 37.2 nM | 0.384 | 657 nM |  |  |  |  | 0.936 | 2240 nM |  |  |
| SW982 (soft tissue, adherent) | 0.536 | 157 nM | 0.712 | 32.3 nM | 0.985 | > 2000 nM | 0.974 | > 10000 nM |  |  | 0.951 | > 1020 nM | 0.964 | > 2560 nM | 0.078 | < 20 nM | 0.942 | > 20000 nM | 0.57 | 25 nM | 0.414 | 722 nM | 0.815 | 5720 nM | 0.962 | > 1000 nM | 0.401 | 85 nM | 0.602 | 1.5 nM |
| TE-11 (oesophagus, adherent) | 0.561 | 181 nM | 0.83 | 70.9 nM | 0.99 | > 2000 nM | 0.986 | > 10000 nM |  |  | 0.99 | > 1020 nM | 0.407 | 91 nM | 0.456 | 246 nM | 0.989 | > 20000 nM | 0.599 | 29.1 nM | 0.957 | > 20000 nM | 0.917 | > 10000 nM | 0.989 | > 1000 nM | 0.802 | 1130 nM | 0.444 | 0.558 nM |
| VAL (B-cell lymphoma, suspension) | 0.95 | > 2000 nM | 0.661 | 22.5 nM | 0.987 | > 2000 nM | 0.987 | > 10000 nM | 0.897 | > 16000 nM | 0.986 | > 1020 nM | 0.973 | > 2560 nM | 0.03 | < 20 nM | 0.914 | > 20000 nM |  |  | 0.161 | 114 nM | 0.9 | > 10000 nM | 0.985 | > 1000 nM | 0.673 | 487 nM | 0.936 | > 12.5 nM |

Lines with a small IC50 respond at low doses; where the fit passes the top or lowest dose, that dose stands as a limit. AUC is the area under the same curve over the 256-fold range up to the top dose, as a fraction; it is 1 without any effect and falls as sensitivity rises. For some of these results: An inferred top dose comes from the curve model; the source does not state it. For some of these results: An entry number marks a drug with two screens in the source, which often give different values.
